Patent US11197891B2, “Therapies with lanthionine C-like protein 2 ligands and cells prepared therewith” (Landos Biopharma, Inc., priority 2017, dated 2021)

Assays:
[1] = system: Lancl2ΔT and Lancl2-expressing control mice challenged with DSS; settings: early evaluations of efficacy; cited from earlier work
C. difficile = C. difficile culture in chopped meat media (anti-microbial properties)
WT Tregs = experiment: Metabolic analysis (pyruvate kinase, pyruvate dehydrogenase, PEP) in in vitro Tregs; type: cell-based, mice
Method: (§1) Colons and cells were suspended within assay specific buffer and homogenized for 10 seconds. Homogenate was centrifuged for 10 minutes at 10,000×g. For enzyme activity assays, supernatant was collected and plated. Samples were mixed with enzyme developer and substrate. Colorimetric detection of NADH production was measured using a BioTek μQuant plate reader in combination with Gen5 software. For PEP assay, supernatant was deproteinized using perchloric acid mediated purification. Samples were plated and mixed with a probe, converter, developer mix. PEP concentration was measured by absorbance quantification on plate reader.
Spleens from WT and Lancl2−/− mice were excised and crushed to generate a single cell suspension. CD4+ T cell fraction was enriched by negative selection via magnetic sorting with the BD IMag system. Naïve CD4+ T cells were obtained by incubation with a biotinylated CD62L antibody followed by conjugation to streptavidin coated magnetic beads. Naïve cells were incubated for 48 hours within anti-CD3 coated tissue culture plates in complete IMDM media containing all-trans retinoic acid and purified TGF-β to stimulate differentiation into Tregs. […] Metabolic modulators, PS-48 (5 μM), DASA-58 (10 μM), and thapsigargin (10 nM), were added at 0 h. […] Six hours prior to assay, cells were stimulated with PMA and ionomycin. Cells were collected from plate for downstream analysis by flow cytometry, gene expression and metabolic assay.

[2] = system: colonic CD4+ T cells from Mdr1a−/− mice; experiment: Gene expression in colonic CD4+ T cells of treated Mdr1a−/− mice; type: in vivo; settings: oral BT-11, 10 weeks of age
Mdr1a−/− mice = Mdr1a−/− mice with PS-48 injections (in vivo validation of immunometabolic effect)
Method: as §1
To validate the in vitro immunometabolic findings, Mdr1a−/− mice were given weekly intraperitoneal injections of PS-48 or vehicle control. […] Similar patterns were observed within the DSS model.

[3] = after oral administration; cited from earlier work
Naïve CD4+ T cells = experiment: Differentiation of naïve CD4+ T cells into Tregs with IL-2 or IL-12 (flow cytometry); type: cell-based, mice
Method: Naïve CD4+ T cells were isolated from the spleens of mice by magnetic sorting. The isolated cells were incubated in anti-CD3/anti-CD28 coated 96 well plates in Treg differentiation media. The Treg differentiation media was Iscove's Modified Dulbecco's Medium (IMDM) media (ThermoFisher Scientific) supplemented with fetal bovine serum, HEPES, penicillin/streptomycin, L-glutamine, and differentiation agents. The Treg differentiation agents were 10 nM all-trans-retinoic acid and 5 ng/mL TGF-β. Additional experiments were conducted comparing differentiation in the Treg differentiation media with and without the addition of 10 ng/mL IL-2 or IL-12. […] Prior to assay, cells were stimulated with PMA and ionomycin for 6 hours.
Colonic lamina propria lymphocytes and cultured cells were plated in 96 well plates (6×10^5 cells/well) and processed for immunophenotyping by flow cytometry as previously described. Briefly, cells were incubated with fluorochrome conjugated antibodies to extracellular markers: CD45, CD4, CD3, CD25, CD8. Samples needing a secondary staining were incubated with secondary antibodies, or streptavidin-conjugated fluorochrome. The samples were then fixed and permeabilized. Cells were incubated with antibodies to intracellular markers: Tbet, IFNγ, IL10, FOXP3, IL17, RORγT. Data was acquired with a BD FACS Celesta flow cytometer and analyzed using FACS Diva software (BD Pharmingen).
Naïve CD4+ T cells were differentiated into Tregs in vitro in the presence or absence of IL-2 according to the methods described above.
Cells were also differentiated in the presence of inhibitors for PTEN (SF1670) or STATS (STAT5i).

Rag2−/− recipient mice = experiment: Adoptive transfer model: Teff and Treg co-transfer into Rag2−/− mice; type: in vivo
[4] = at 10 weeks of age, oral BT-11, vehicle injections
[5] = IL-12-treated samples (10 ng/mL)

## O=C(c1cccc(-c2nc3ccccc3[nH]2)n1)N1CCN(C(=O)c2cccc(-c3nc4ccccc4[nH]3)n2)CC1 [BT-11, N,N-Bis(benzimidazolylpicolinoyl)piperazine]
[1]
  disease activity scores in mice challenged with DSS: improvement in disease activity scores
C. difficile; BT-11 at 1, 10 and 100 ug/mL, 24 hours after inoculation
  colony forming units: No concentration of BT-11 tested induced a decrease
C. difficile; exposure to BT-11
  ability of C. difficile to form spores: did not change
WT Tregs; BT-11-treated Tregs versus vehicle-treated controls
  phosphoenolpyruvate (PEP) concentration: significantly lower
WT Tregs; WT Tregs, 0.625 μM
  pyruvate kinase activity: increase in pyruvate kinase activity
WT Tregs; particularly at 0.156 μM and 0.625 μM
  pyruvate dehydrogenase (PDH) activity: stimulated by BT-11 treatment
[2]
  expression of Pten and Phlpp1: slightly, but non-significantly, increased
  expression of Stat5a and Foxo1: significantly higher expression
Mdr1a−/− mice; [4]
  PDH activity within the colon: increased PDH activity
  PEP concentration within the colon: decreased PEP concentration
Mdr1a−/− mice; oral BT-11
  expression of Treg cell-stability associated genes in colon: upregulated with BT-11 treatment
[3]
  plasma half-life: 3.1 h
  systemic bioavailability: < 10%
Naïve CD4+ T cells; 100 nM, absence of IL-2
  CD25+ FOXP3+ subtype: significantly increased the establishment of a CD25+ FOXP3+ subtype
Naïve CD4+ T cells; [5]
  CD25+ FOXP3+ cells: retained significantly higher levels of CD25+ FOXP3+ cells
  CD25+ Tbet+ cells: dose-dependent protection against this mixed subset
Naïve CD4+ T cells; as low as 10 nM, presence of IL-2 (10 ng/mL)
  CD25+ FOXP3+ cells: induced significantly more CD25+ FOXP3+ cells
Naïve CD4+ T cells; with or without IL-2
  CD25+ Tbet+ subtype: not statistically altered by BT-11
Rag2−/− recipient mice; KO Teff / WT Treg transfer
  efficacy of oral treatment: presented efficacy in recipients of WT Treg cells
Rag2−/− recipient mice; WT Teff / KO Treg transfer
  cellular or histopathological characterizations of inflammation: no benefit of BT-11 treatment
Rag2−/− recipient mice; WT Teff / WT Treg transfer
  inflammation across all measures (disease activity, histopathology, Th1, neutrophils, cytokines): consistent decreases in inflammation
